For 49 molecules, activation results are on record in PubChem BioAssay AID1645887 (National Center for Advancing Translational Sciences (NCATS), 2021).

Molecules are shown by their SMILES. Values joined by “and” are separate entries in the source; they are usually repeats but may differ in a detail not shown here. Equal values may be shown once. The whole screen tested about 16,000 compounds, of which about 40 (0.2%) were called active. Roughly 1% stayed inconclusive and do not appear here. Calls follow the shape of the dose curve; as a rule, active = well fitted activation curve with a large enough effect; inconclusive = small, poorly fitted or top-dose-only effect, or another doubt; inactive = no such curve, though single readings can be large or run the other way. The list shows a part of the results.
% is scaled to controls: 0 for no effect and ±100 for the full control effect.

Chain of UniProt Q8WZA2 (Q8WZA2 whole entry, looked up): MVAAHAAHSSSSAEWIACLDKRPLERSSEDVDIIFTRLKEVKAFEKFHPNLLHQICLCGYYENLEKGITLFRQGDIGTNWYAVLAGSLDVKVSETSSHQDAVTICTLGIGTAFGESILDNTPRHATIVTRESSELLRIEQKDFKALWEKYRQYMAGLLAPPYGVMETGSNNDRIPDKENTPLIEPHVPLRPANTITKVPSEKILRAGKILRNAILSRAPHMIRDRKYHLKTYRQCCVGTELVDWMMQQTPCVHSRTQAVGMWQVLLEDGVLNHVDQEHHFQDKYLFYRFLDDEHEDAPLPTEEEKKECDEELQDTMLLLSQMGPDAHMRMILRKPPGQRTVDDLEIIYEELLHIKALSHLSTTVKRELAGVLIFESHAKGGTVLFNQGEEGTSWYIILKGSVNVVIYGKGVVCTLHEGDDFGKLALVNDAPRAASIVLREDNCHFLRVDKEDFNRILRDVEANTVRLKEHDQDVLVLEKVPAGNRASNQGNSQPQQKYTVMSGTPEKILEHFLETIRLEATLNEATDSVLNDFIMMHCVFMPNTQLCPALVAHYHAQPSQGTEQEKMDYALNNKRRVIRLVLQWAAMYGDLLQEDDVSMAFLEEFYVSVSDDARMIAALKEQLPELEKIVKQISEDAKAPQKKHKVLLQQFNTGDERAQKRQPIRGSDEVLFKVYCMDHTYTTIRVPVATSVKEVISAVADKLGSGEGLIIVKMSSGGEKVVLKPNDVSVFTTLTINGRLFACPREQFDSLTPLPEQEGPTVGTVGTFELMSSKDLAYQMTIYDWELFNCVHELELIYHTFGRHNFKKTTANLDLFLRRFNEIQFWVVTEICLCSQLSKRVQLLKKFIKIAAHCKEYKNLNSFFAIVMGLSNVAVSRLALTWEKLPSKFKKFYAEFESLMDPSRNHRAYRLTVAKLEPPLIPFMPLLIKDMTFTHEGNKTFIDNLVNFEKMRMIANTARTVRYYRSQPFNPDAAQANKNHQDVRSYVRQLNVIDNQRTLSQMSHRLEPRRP

For this assay, the target named is Rap guanine nucleotide exchange factor 4 (Homo sapiens) (UniProt Q8WZA2). Nature of the assay: Validation qHTS for agonist of cAMP-regulated guanine nucleotide exchange factor 4 (EPAC2).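 Also: exchange makes BODIPY-GDP fluorescence drop when released from Rap1B; series mostly up to about 150 µM.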 The note with it: EPAC2 Rap1B BODIPY-GDP exchange, fluorescence; activation: stronger effect = higher value. The procedure, abridged:
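Signal normalized against 6.5 mM cAMP as agonist control. Mix of EPAC2 (100 nM), RAP1B-BODIPY-GDP (250 nM) and GDP (50 uM) was read kinetically at 480/540 nm, every 5 min over 30 min, after 5 min room-temperature incubation with compound.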
Regarding `CN(C)/N=N/c1nc[nH]c1C(N)=O`, the activation is inactive: -18.2% and inactive: -16.2%. Consider `CC1=CC2C(C)(C)CC(=O)C[C@]2(C)CC1COc1ccc2c(c1)CC(=O)C=C2` (some centres undefined), for which the activation is inactive: -12.9%.

`COc1ccc(CNc2ncnc3ccc(-c4cccc(NS(C)(=O)=O)c4)cc23)c(OC)c1`: the activation was inactive: 7.62%. Consider `Cc1nc2cnc(N3CCN(C)CC3)nc2n(C[C@H]2CCCO2)c1=O`, for which the activation is inactive: -8.25%. In the case of `CCCCCC1Nc2cc(C(F)(F)F)c(S(N)(=O)=O)cc2S(=O)(=O)N1` (centres undefined) it was inactive: 5.78%. The figure for `CN1CCN(c2ncc3nc(-c4ccccc4)c(=O)n(CCc4ccccc4)c3n2)CC1` is inactive: -32.1%; for `CCn1c(-c2ccccc2F)nc2cc(NC(C)=O)cc(C(=O)N3CCCCC3c3nccn3C)c21` (centres undefined) it is inactive: 2.78%.

As for `CC[C@]1(O)C[C@H]2CN(CCC3=c4ccccc4=N[C]3[C@@](C(=O)OC)(c3cc4c(cc3OC)N(C)[C@H]3[C@@](O)(C(N)=O)[C@H](O)[C@]5(CC)C=CCN6CC[C@]43[C@@H]65)C2)C1`, the activation is inactive: -27.6%. The figure for `CCn1c(-c2cccnc2)nc2cc(NC(=O)COC)cc(C(=O)N3CC[C@@H]4CCCC[C@H]4C3)c21` is inactive: -10.2%. Regarding `COc1[nH]c2ccc(F)cc2c1C(=O)OCC1CCN(CCNS(C)(=O)=O)CC1`, the activation is inactive: -11.6%.

Consider `O=[N+]([O-])c1cccc(S(=O)(=O)NCCNS(=O)(=O)c2cccc([N+](=O)[O-])c2)c1`, for which the activation was inactive: -7.42%. In the case of `COc1ccccc1-n1cc(CN2CCOc3ccc(CN4C[C@@H](C)O[C@@H](C)C4)cc3C2)cn1` it was inactive: 7.27%; in that of `COc1cccc(-c2cnc(-c3ccncc3)nc2C2CCN(C(=O)Cc3csc(C)n3)CC2)c1`, inactive: -41.6%; in that of `CCn1nc(C)c(CN2CCC3(CCC(CNC(=O)c4ccccc4)O3)CC2)c1C` (centres undefined), inactive: -7.73%.

As for `COC(=O)/C=C/c1ccc2c(c1)S(=O)(=O)N(c1cccc(OC)c1)[C@H]2CC(=O)OC`, the activation was inactive: -2.12%. The figure for `CCOc1ccc2c(c1)C(C)=CC(C)(C)N2` is inactive: -10.3% and inactive: -24.6%; for `CCOC(=O)[C@H](CCc1ccccc1)N[C@@H](C)C(=O)N1[C@H](C(=O)O)C[C@@H]2CCC[C@@H]21` it is inactive: -0.75%; for `COCCn1c(=O)c(-c2cccs2)nc2cnc(OCc3ccccc3)nc21` it is inactive: -6.12%. In the case of `COc1ccc(CNc2ncnc3ccc(-c4ccccc4C#N)cc23)c(OC)c1` it was inactive: -9.78%; in that of `NC(=O)c1ncn([C@@H]2O[C@H](CO)[C@@H](O)[C@H]2O)n1`, inactive: 2.3% and inactive: -5.32%; in that of `COc1ccccc1CN1CCC2(CCNCC2)CC1`, inactive: 3.59%. Take `O=C1CC(C(=O)N2CCOc3ccc(CN4CCC(Oc5cccnc5)CC4)cc3C2)c2ccccc21` (centres undefined): the activation was inactive: -19%. The figure for `CCC(CC)(CC(=O)Nc1cccc(/C=C/c2nc(C3CCC3)cs2)c1)C(=O)O` is inactive: -13.8%; for `CN(C)c1ccc(C=O)c(Cl)c1` it is inactive: -23.7%; for `COC(=O)[C@@H](CC(C)C)NS(=O)(=O)N(Cc1ccccc1)[C@@H](CC(C)C)C(=O)OC` it is inactive: -22.1%. On to `NC(=O)C1CCCN(Cc2ccc3c(c2)CN(Cc2ccccc2)CCO3)C1` (centres undefined), for which the activation is inactive: 2.94%. The figure for `COc1ccc(NC(=O)N2CC[C@@]3(CCCN(C(=O)c4c(C)noc4C)C3)C2)cc1` is inactive: -11.1%. Take `CC(=O)c1ccc(F)c(-c2cc(C)cc3c2OC(CNC(=O)Cn2nc(C)nc2C)C3)c1` (centres undefined): the activation was inactive: -10.9%.

Consider `COCCCNC(=O)c1cnn(-c2ncc3c(n2)-c2ccccc2CCC3)c1C`, for which the activation was inactive: 5.39%. On to `CC(C)COCC(CN(Cc1ccccc1)c1ccccc1)N1CCCC1` (centres undefined), for which the activation is inactive: -4.77% [middle of 4 runs].

In the case of `O=C(Oc1ccccc1)N1CCC[C@@]2(CCN(c3ccccn3)C2)C1`, the activation is inactive: -8.43%.

For `CC1=CC2C(C(C)C)CCC(C)(O)C2CC1` (centres undefined), the activation was inactive: -15.2%. The figure for `CS(=O)(=O)c1ccc([C@@H](O)[C@@H](COC(=O)CN)NC(=O)C(Cl)Cl)cc1` is inactive: 9.1%; for `COC(=O)[C@H]1[C@H]2C[C@@H]3c4[nH]c5cc(OC)ccc5c4CCN3C[C@H]2C[C@@H](OC(=O)COc2ccc(OC)cc2)[C@@H]1OC` it is inactive: 8.61%; for `c1ccc2c(N3CCNCC3)nc(-c3ccoc3)nc2c1` it is inactive: -4.06%.

With `NC(C(=O)O)c1ccc(P(=O)(O)O)cc1` (centres undefined), the activation is inactive: 2.91%. For `Cc1ccc(CN2CCC(=O)N(Cc3ccccn3)CC2)c(C)c1`, the activation was inactive: -19.1%. Consider `Cn1c(=O)c2[nH]c(C3CCCC3)nc2n(C)c1=O`, for which the activation was inactive: -15.1% and inactive: -4.01% and inactive: -37.7%.

As to `COc1ccc(C(=O)N2CCC[C@@]3(CCN(Cc4ccc(C#N)cc4)C3)C2)cc1`, the activation was inactive: 2.96%. In the case of `CCCN1CCC(=O)N([C@H](CSc2ccccc2)CC(C)C)CC1` it was inactive: -38.6%; in that of `Cc1cccc(CNc2nc(-c3c(C)noc3C)nc3ccccc23)c1`, inactive: -5.93%. For `CC1=C(/C=C/C(C)=C/C=C/C(C)=C/C(=O)Oc2c(C)c(C)c3c(c2C)CC[C@@](C)(CCC[C@H](C)CCC[C@H](C)CCCC(C)C)O3)C(C)(C)CCC1`, the activation is inactive: -16.3%. The figure for `COc1ccc2c(c1)CCC1C2CC[C@@]2(C)C1CC[C@@H]2NCCCCCCN1C(=O)C=CC1=O` (some centres undefined) is inactive: -19%. Consider `CN(C)c1ncc2nc(CCc3ccccc3)c(=O)n(C3CC3)c2n1`, for which the activation was inactive: -8.01%.

`CC(C)C[C@@H](CO)N1CCN(Cc2cccnc2)CCC1=O`: the activation was inactive: -8.52%. Turning to `Cc1cnc(-n2ncc(C(=O)NCCN3CCOCC3)c2-c2cccs2)nc1-c1ccc(F)cc1`, the activation is inactive: -0.714%.

For `COC1C[C@@H](O[C@@H]2C(C)C(=O)OC(C)C(C)C(O)C(C)C(=O)[C@@]3(CO3)CC(C)C(OC3OC(C)CC(N(C)C)C3O)C2C)OC(C)[C@@H]1O` (some centres undefined), the activation was inactive: -4.88%. The figure for `Cn1c(=O)c(-c2cccs2)nc2cnc(Oc3ccccc3)nc21` is inactive: -2.57%; for `O=C1CCC(c2ccccc2)(C2CCN(Cc3ccccc3)CC2)C(=O)N1` (centres undefined) it is inactive: -20.1% and inactive: -3.92%.
